Test results reported in paper PMC4336329 (PLoS ONE, 2015).
Hit rate of the full screen: of about 310,000 compounds, about 14,000 (4.5%) showed an effect of 50% or more. Effects have a minus sign here. The list shows a part of the results. Where a SMILES comes first, the peptide text is derived from it. [ ]: non-standard residue; d: D form. pGlu = O=C1CC[CH](C(=O)O)N1

Biological target: human ether-à-go-go-related gene (hERG) potassium channel (human, UniProt Q12809)
Assay: primary screen, population patch clamp on CHO cells stably expressing hERG
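Further: peak tail current of the secondary pulse compared with the same well before compound.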

human ether-à-go-go-related gene (hERG) potassium channel, sequence (Q12809 whole entry, looked up): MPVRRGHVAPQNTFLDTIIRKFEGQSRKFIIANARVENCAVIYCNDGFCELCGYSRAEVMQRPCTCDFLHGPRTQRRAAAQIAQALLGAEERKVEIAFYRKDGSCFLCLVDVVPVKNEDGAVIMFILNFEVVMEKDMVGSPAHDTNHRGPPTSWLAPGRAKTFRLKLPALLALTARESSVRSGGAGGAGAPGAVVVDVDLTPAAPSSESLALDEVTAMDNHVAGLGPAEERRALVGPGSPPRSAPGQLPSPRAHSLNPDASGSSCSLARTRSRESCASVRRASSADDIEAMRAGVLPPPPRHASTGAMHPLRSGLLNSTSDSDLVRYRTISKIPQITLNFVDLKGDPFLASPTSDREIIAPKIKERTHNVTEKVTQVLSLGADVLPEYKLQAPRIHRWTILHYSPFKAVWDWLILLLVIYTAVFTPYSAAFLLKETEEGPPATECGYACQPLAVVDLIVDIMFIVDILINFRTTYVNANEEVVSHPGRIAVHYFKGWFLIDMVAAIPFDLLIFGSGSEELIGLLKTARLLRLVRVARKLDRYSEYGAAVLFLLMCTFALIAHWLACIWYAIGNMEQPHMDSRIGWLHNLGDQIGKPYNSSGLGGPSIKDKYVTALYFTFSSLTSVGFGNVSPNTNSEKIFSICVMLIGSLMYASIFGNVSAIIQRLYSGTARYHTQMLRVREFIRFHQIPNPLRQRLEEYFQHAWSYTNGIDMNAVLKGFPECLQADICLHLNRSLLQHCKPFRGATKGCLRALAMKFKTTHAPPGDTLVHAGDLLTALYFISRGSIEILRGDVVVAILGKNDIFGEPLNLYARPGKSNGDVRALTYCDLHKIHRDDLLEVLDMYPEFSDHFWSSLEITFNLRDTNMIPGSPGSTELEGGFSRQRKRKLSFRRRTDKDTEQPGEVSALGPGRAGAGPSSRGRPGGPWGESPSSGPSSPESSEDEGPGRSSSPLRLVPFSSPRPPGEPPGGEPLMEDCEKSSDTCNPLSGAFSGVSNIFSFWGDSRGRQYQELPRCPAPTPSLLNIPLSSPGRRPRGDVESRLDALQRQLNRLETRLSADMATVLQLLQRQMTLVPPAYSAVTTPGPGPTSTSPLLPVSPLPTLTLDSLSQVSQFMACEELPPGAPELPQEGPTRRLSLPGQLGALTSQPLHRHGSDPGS

Compound	hERG current change (%, negative = inhibition) at 10uM [%]
O=C(Nc1ccccc1)C1CCN(C(=O)c2ccc(Br)cc2)CC1	-59.3
Cc1cc(N2C(=O)C3CCCN3C2c2sccc2C)no1 (stereo not drawn)	12.5
COC(=O)C(Cc1cnc[nH]1)NC(=O)C1CCC(=O)N1 (stereo not drawn) ([pGlu]-His-OMe; configuration not given here)	47.5
CN(C1CCCCC1)S(=O)(=O)c1cc2c(cc1Cl)NC(=O)CO2	-19.2
CC(C)CCn1c(=O)c2ccccc2n2c(CCC(=O)NC3CCN(Cc4ccccc4)CC3)nnc12	-49.6
Cc1ccc(C(=O)Cn2nnc3ccccc32)cc1[N+](=O)[O-]	5.7
O=C(NCc1ccccc1)C1CCCN(S(=O)(=O)c2ccc(F)cc2)C1 (stereo not drawn)	-7.42
COc1ccc2c(c1)CCc1c(C(=O)N3CCCC3)noc1-2	-7.79
CCN(CC(=O)Nc1ccccc1C(F)(F)F)C(=O)c1ccccc1Sc1ccccc1C#N	4.62
CCC(C)(C)NC(=O)COc1ccc(C(=O)c2ccccc2)cc1	-28.2
CCOC(=O)c1cnn(-c2ccccc2)c1-n1cccc1C(=O)C(=O)N(C)C	-4.57
COc1cc(C(=O)NCCCCCC(=O)O)cc(OC)c1OC	-22.1
Cc1ccccc1OCC1CNC(=O)O1 (stereo not drawn)	20.5
O=c1c2ccccc2c2c(O)nc(-c3ccccc3)n2n1Cc1ccccc1	11.2
COc1ccc(CN2C(=NC(=O)C3CC3)SC3CS(=O)(=O)CC32)cc1 (stereo not drawn)	8.08
CN1CCN(CCOc2ccc(Cc3ccccc3)cc2)CC1.Cl	-23.4
Cc1c(NC(=O)CSc2nnc(N)s2)c(=O)n(-c2ccccc2)n1C	-10.4
CCOc1ccc(NC(=O)C(C)O)c(NS(=O)(=O)c2ccc(CCNC(C)=O)cc2)c1 (stereo not drawn)	10.7
CCC/C=N/Nc1nc2ccccc2s1	-6.12
COc1ccc(NC(=O)Cn2cc(C(C)=O)c3ccccc32)cc1	1.65
Cl.Clc1ccc(Sc2ccccn2)cc1	5.45
O=C(CC1CCCC1)Nc1cc(S(=O)(=O)N2CCOCC2)ccc1O	4.05
Cc1ccc(C(C(=O)NC(C)(C)C)N(Cc2ccco2)C(=O)CCC(=O)Nc2ccccn2)cc1 (stereo not drawn)	7.84
O=C(COC(=O)C1=COCCO1)NCc1ccc(Cl)cc1	-0.77
